# From the supplement of paper PMC8728848
# This is one part of the list.
# B1: DC-ASGPR-short (Homo sapiens) (protein)
# chain: MTRTYENFQYLENKVKVQGFKNGPLPLQSLLQRLRSGPCHLLLSLGLGLLLLVIICVVGFQNSKFQRDLVTLRTDFSNFTSNTVAEIQALTSQGSSLEETIASLKAEVEGFKQERQAVHSEMLLRVQQLVQDLKKLTCQVATLNNNASTEGTCCPVNWVEHQDSCYWFSHSGMSWAEAEKYCQLKNAHLVVINSREEQNFVQKYLGSAYTWMGLSDPEGAWKWVDGTDYATGFQNWKPGQPDDWQGHGLGGGEDCAHFHPDGRWNDDVCQRPYHWVCEAGLGQTSQESH
# Columns and labels:
# Experiment in all cases: glycan array binding signal (z-score within array); higher = stronger binding
# Conditions in all cases: glycan notation: IUPAC condensed, linker removed
# [1] = target: Neu5Ac(a2-6)Gal(b1-4)GlcNAc(b1-3)Gal(b1-4)GlcNAc(b1-3)Gal(b1-4)GlcNAc
# Summary of the method: (§1)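 Glycan array data were curated from 3228 arrays in the Consortium for Functional Glycomics database and kept only where the protein sequence was available. Glycan names were converted to IUPAC-condensed notation, and columns mapping to the same glycan were averaged. The binding signal is a within-array Z-score, averaged across arrays of the same protein sequence at different concentrations or buffers and across linkers. Negative Z-scores can be read as non-binding.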
# [2] = target: Neu5Ac(a2-6)Gal(b1-4)GlcNAc(b1-3)Gal(b1-4)GlcNAc(b1-3)Gal(b1-4)GlcNAc(b1-2)Man(a1-3)[Neu5Ac(a2-6)Gal(b1-4)GlcNAc(b1-3)Gal(b1-4)GlcNAc(b1-3)Gal(b1-4)GlcNAc(b1-2)Man(a1-6)]GalNAc
# Summary of the method: as §1
# [3] = target: Neu5Ac(a2-6)Gal(b1-4)GlcNAc(b1-3)Gal(b1-4)GlcNAc(b1-3)GalNAc
# Summary of the method: as §1
# [4] = target: Neu5Ac(a2-6)Gal(b1-4)GlcNAc(b1-3)Gal(b1-4)GlcNAc(b1-3)[Neu5Ac(a2-6)Gal(b1-4)GlcNAc(b1-3)Gal(b1-4)GlcNAc(b1-6)]GalNAc
# Summary of the method: as §1
# [5] = target: Neu5Ac(a2-6)Gal(b1-4)GlcNAc(b1-3)Gal(b1-4)GlcNAc(b1-6)[Gal(b1-3)]GalNAc
# Summary of the method: as §1
# [6] = target: Neu5Ac(a2-6)Gal(b1-4)GlcNAc(b1-3)Gal(b1-4)[Fuc(a1-3)]GlcNAc(b1-3)Gal(b1-4)[Fuc(a1-3)]GlcNAc
# Summary of the method: as §1
# [7] = target: Neu5Ac(a2-6)Gal(b1-4)GlcNAc(b1-3)GalNAc
# Summary of the method: as §1
# [8] = target: Neu5Ac(a2-6)Gal(b1-4)GlcNAc(b1-3)[Neu5Ac(a2-6)Gal(b1-4)GlcNAc(b1-6)]GalNAc
# Summary of the method: as §1
# [9] = target: Neu5Ac(a2-6)Gal(b1-4)GlcNAc(b1-6)GalNAc
# Summary of the method: as §1
# [10] = target: Neu5Ac(a2-6)Gal(b1-4)GlcNAc(b1-6)[Gal(b1-3)GlcNAc(b1-3)]Gal(b1-4)Glc
# Summary of the method: as §1
# [11] = target: Neu5Ac(a2-6)Gal(b1-4)GlcNAc(b1-6)[Gal(b1-3)]GalNAc
# Summary of the method: as §1
# [12] = target: Neu5Ac(a2-6)Gal(b1-4)GlcNAc6S
# Summary of the method: as §1
# Neu5Ac(a2-6)GalNAc = target: Neu5Ac(a2-6)GalNAc
# Summary of the method: as §1
# [13] = target: Neu5Ac(a2-6)GalNAc(b1-4)GlcNAc
# Summary of the method: as §1
# [14] = target: Neu5Ac(a2-6)GalNAc(b1-4)GlcNAc6S
# Summary of the method: as §1
# [15] = target: Neu5Ac(a2-6)GlcNAc(b1-4)GlcNAc
# Summary of the method: as §1
# [16] = target: Neu5Ac(a2-6)GlcNAc(b1-4)GlcNAc(b1-4)GlcNAc
# Summary of the method: as §1
# Neu5Ac(a2-8)Neu5Ac = target: Neu5Ac(a2-8)Neu5Ac
# Summary of the method: as §1
# [17] = target: Neu5Ac(a2-8)Neu5Ac(a2-3)Gal(b1-3)GalNAc(b1-4)[Neu5Ac(a2-3)]Gal(b1-4)Glc
# Summary of the method: as §1
# [18] = target: Neu5Ac(a2-8)Neu5Ac(a2-3)Gal(b1-3)GalNAc(b1-4)[Neu5Ac(a2-8)Neu5Ac(a2-3)]Gal(b1-4)Glc
# Summary of the method: as §1
# [19] = target: Neu5Ac(a2-8)Neu5Ac(a2-3)Gal(b1-4)Glc
# Summary of the method: as §1
# [20] = target: Neu5Ac(a2-8)Neu5Ac(a2-3)Gal(b1-4)GlcNAc
# Summary of the method: as §1
# [21] = target: Neu5Ac(a2-8)Neu5Ac(a2-3)[Gal(b1-3)GalNAc(b1-4)]Gal(b1-4)Glc
# Summary of the method: as §1
# [22] = target: Neu5Ac(a2-8)Neu5Ac(a2-3)[GalNAc(b1-4)]Gal(b1-4)Glc
# Summary of the method: as §1
# [23] = target: Neu5Ac(a2-8)Neu5Ac(a2-8)Neu5Ac
# Summary of the method: as §1
# [24] = target: Neu5Ac(a2-8)Neu5Ac(a2-8)Neu5Ac(a2-3)Gal(b1-4)Glc
# Summary of the method: as §1
# [25] = target: Neu5Ac(a2-8)Neu5Ac(a2-8)Neu5Ac(a2-3)[Gal(b1-3)GalNAc(b1-4)]Gal(b1-4)Glc
# Summary of the method: as §1
# [26] = target: Neu5Ac(a2-8)Neu5Ac(a2-8)Neu5Ac(a2-3)[GalNAc(b1-4)]Gal(b1-4)Glc
# Summary of the method: as §1
# [27] = target: Neu5Ac(a2-8)Neu5Ac(a2-8)Neu5Ac(a2-8)Neu5Ac(a2-3)[GalNAc(b1-4)]Gal(b1-4)Glc
# Summary of the method: as §1
# [28] = target: Neu5Ac(a2-8)Neu5Gc(a2-3)Gal(b1-4)GlcNAc
# Summary of the method: as §1
# [29] = target: Neu5Ac(b2-6)Gal(b1-4)GlcNAc
# Summary of the method: as §1
# Neu5Ac(b2-6)GalNAc = target: Neu5Ac(b2-6)GalNAc
# Summary of the method: as §1
# [30] = target: Neu5Ac9Ac(a2-3)Gal(b1-3)GlcNAc
# Summary of the method: as §1
# [31] = target: Neu5Ac9Ac(a2-3)Gal(b1-4)GlcNAc
# Summary of the method: as §1
# [32] = target: Neu5Ac9Ac(a2-6)Gal(b1-4)GlcNAc
# Summary of the method: as §1
# [33] = target: Neu5Gc(a2-3)Gal(b1-3)GlcNAc
# Summary of the method: as §1
# [34] = target: Neu5Gc(a2-3)Gal(b1-3)[Fuc(a1-4)]GlcNAc
# Summary of the method: as §1
# Neu5Gc(a2-3)Gal(b1-4)Glc = target: Neu5Gc(a2-3)Gal(b1-4)Glc
# Summary of the method: as §1
# [35] = target: Neu5Gc(a2-3)Gal(b1-4)GlcNAc
# Summary of the method: as §1
# [36] = target: Neu5Gc(a2-3)Gal(b1-4)GlcNAc(b1-3)Gal(b1-4)GlcNAc(b1-2)Man(a1-3)[Neu5Gc(a2-3)Gal(b1-4)GlcNAc(b1-3)Gal(b1-4)GlcNAc(b1-2)Man(a1-6)]Man(b1-4)GlcNAc(b1-4)GlcNAc
# Summary of the method: as §1
# [37] = target: Neu5Gc(a2-3)Gal(b1-4)[Fuc(a1-3)]GlcNAc
# Summary of the method: as §1
# [38] = target: Neu5Gc(a2-6)Gal(b1-4)GlcNAc
# Summary of the method: as §1
# Neu5Gc(a2-6)GalNAc = target: Neu5Gc(a2-6)GalNAc
# Summary of the method: as §1
# [39] = target: Neu5Gc(a2-8)Neu5Ac(a2-3)Gal(b1-4)GlcNAc
# Summary of the method: as §1
# [40] = target: Neu5Gc(a2-8)Neu5Gc(a2-3)Gal(b1-4)GlcNAc
# Summary of the method: as §1
binder,measurement,setting,value
B1,glycan array binding signal (z-score),[1],-0.273
same,glycan array binding signal (z-score),[2],0.003
same,glycan array binding signal (z-score),[3],-0.961
same,glycan array binding signal (z-score),[4],-0.129
same,glycan array binding signal (z-score),[5],-0.241
same,glycan array binding signal (z-score),[6],-0.24
same,glycan array binding signal (z-score),[7],0.688
same,glycan array binding signal (z-score),[8],-0.019
same,glycan array binding signal (z-score),[9],-0.207
same,glycan array binding signal (z-score),[10],-0.283
same,glycan array binding signal (z-score),[11],-0.208
same,glycan array binding signal (z-score),[12],-0.283
same,glycan array binding signal (z-score),Neu5Ac(a2-6)GalNAc,0.404
same,glycan array binding signal (z-score),[13],0.33
same,glycan array binding signal (z-score),[14],1.1
same,glycan array binding signal (z-score),[15],-0.274
same,glycan array binding signal (z-score),[16],-0.285
same,glycan array binding signal (z-score),Neu5Ac(a2-8)Neu5Ac,-0.282
same,glycan array binding signal (z-score),[17],-0.267
same,glycan array binding signal (z-score),[18],-0.254
same,glycan array binding signal (z-score),[19],-0.277
same,glycan array binding signal (z-score),[20],-0.282
same,glycan array binding signal (z-score),[21],0.469
same,glycan array binding signal (z-score),[22],2.27
same,glycan array binding signal (z-score),[23],-0.197
same,glycan array binding signal (z-score),[24],-0.278
same,glycan array binding signal (z-score),[25],-0.261
same,glycan array binding signal (z-score),[26],2.07
same,glycan array binding signal (z-score),[27],1.25
same,glycan array binding signal (z-score),[28],-0.278
same,glycan array binding signal (z-score),[29],-0.271
same,glycan array binding signal (z-score),Neu5Ac(b2-6)GalNAc,0.085
same,glycan array binding signal (z-score),[30],-0.281
same,glycan array binding signal (z-score),[31],-0.288
same,glycan array binding signal (z-score),[32],-0.276
same,glycan array binding signal (z-score),[33],-0.279
same,glycan array binding signal (z-score),[34],-0.276
same,glycan array binding signal (z-score),Neu5Gc(a2-3)Gal(b1-4)Glc,-0.274
same,glycan array binding signal (z-score),[35],-0.276
same,glycan array binding signal (z-score),[36],-0.262
same,glycan array binding signal (z-score),[37],0.386
same,glycan array binding signal (z-score),[38],-0.288
same,glycan array binding signal (z-score),Neu5Gc(a2-6)GalNAc,0.449
same,glycan array binding signal (z-score),[39],-0.292
same,glycan array binding signal (z-score),[40],-0.274
